In the RNAGym collection of RNA variant scans (doi:10.7554/elife.90254):
Read counts are not given, so values of variants with three or more changes are uncertain.

B1: LINE1-full (parent)
chain: UACGUAGGUGGUUUUCCCCUGAUAGUGCUAAGGGGGCCUGGAAGUUUGGACUGGGCAGAGCUCAACACAGCGUGGCAAAGUGGCUGUGGCUAGACUGCCUCUCUGGAUUCCUCGUCACUCAGCAGGGCAUCUCUGAGAGAAAUGCC

Variants of: B1
Assay: self-cleavage, relative activity (ratio to wild type); higher = more cleavage; in vitro, sequencing; the parent is a self-cleaving ribozyme

Q: With UACGUAGGUGGUUUUCCCCUGGUAGUGCUAAGGGGGCCUGGAGGUUUGGACUGGGCAGAGCUCAACACUGCGUGGCAAAGUGGCUGUGGCUAGACUGCCUCUCUGGAUUCCUCGUCACUCAGCAGGGCAUCUCUGAGAGAAAUGCC as the variant, how does the self-cleavage read?
A: 0.06

Q: For UACGUAGGUGGUUUUCCCCUGAUAGUGCUAAGGGGGCCUGGAAGCUAGGACUGGGCAGAGCUCAACACAGUGUGGCAAAGUGGCUGUGGCUAGACUGCCUCUCUGGAUUCCUCGUCACUCAGCAGGGCAUCUCUGAGAGAAAUGCC, which self-cleavage is on record?
A: 0.98

Q: With UACGUAGGUGGUUUUCCCCUGAUAGUGCUAAGGGGGACUGGAAGUUUGGACUGGGCUGAGCUCAACACAGCGUGGCAAAGUGGCUGUGGCUAGACUGCCUCUCUGGAUCCCUCGUCACUCAGCAGGGCAUCUCUGAGAGAAAUGCC as the variant, how does the self-cleavage read?
A: 0.09

Q: With UACGUAGGUGGUUAUCCCCUGAUAGUGCUAAGGGGGCCUGGAAGUUUGGACUGGGCAGAGCUCAACACAGCGUGGUAAAGUGGCUGUGGCUAGACUGCCUCUCUGGAUUCCUCGUCACUCAGCAGGGCUUCUCUGAGAGAAAUGCC as the variant, how does the self-cleavage read?
A: 2.53

Q: For UACGUAGGUGGUCUUCCCCUGAUAGGGCUAAGGGGGCCUGGAAGUUUGGACUGGGCAGAGCCCAACACAGCGUGGCAAAGUGGCUGUGGCUAGACUGCCUCUCUGGACUCCUCGUCACUCAGCAGGGCAUCUCUGAGAGAAAUGCC, which self-cleavage is on record?
A: 0.12

Q: With UACGUAGGUGGUUUUCCCCUGAUAGAGCUAAGGGGGCCUGGAAGUUUGGACUGAGCAGAGCUCAACACAGCGUGGCAAAGUGGCUGUGGCUAGACCGCCUCUCUGGAUCCCUCGUCACUCAGCAGGGCAUCUCUGAGAGAAAUGCC as the variant, how does the self-cleavage read?
A: 0.08

Q: Which self-cleavage does the source give for UACGUAGGCGGUUUUCCCCUGAUAGUGCUAAGGGGGCCUGGAAGAUUGGACUGGGCAGAGCUCAACACAGCGUGGCAAAGUGGCUGUGGCUAGACUGCCUCUCUGGAUUCCUCGUCACCCAGCAGGGCAUCUCUGAGAGAGAUGCC here?
A: 1.87

Q: With UACGUAGGUGGCUUUCCCCUGAUAGUGCUAAGGGGGCCUGGAAGUUUGGACUGGGCAGAGCUCAACACAGCGUGGCAAAGUGGCUGUGGCUAGACUGCCUCCCUGGAUUCCUCGUCACUCAGCAGGGCAUCUCUGAGAGAACUGCC as the variant, how does the self-cleavage read?
A: 1.23

Q: For UACGUAGGUGGUUUUCCCCUGAUGGUGCUAAGGGGGCCUGGAAGUUUGGACUGGGCAGAGCCCAACACAGCGUGGCAAAGUGGCUGUGGCUAGACUGCCUCUCUGGAUUCCUCGUCACUCAGCAGGGCAUCUCUGGGAGAAAUGCC, which self-cleavage is on record?
A: 0.05

Q: For UACGUAGGUGGUUUUCCCCUGAUAGCGCUAAGGGGGCCUGGAAGUUUGGACUGGGCAGAGCUCAACACAGCGAGGCAAAGUGGCUGUGGCUAGACUGCCUCUCUGGAUUCCCCGUCACUCAGCAGGGCAUCUCUGAGAGAAAUGCC, which self-cleavage is on record?
A: 2.07

Q: With UACGUAGGUGGUUUUCCCCUGAUAGCGCUAAGGGGGCCUGGAAGUUUGGACUGGGCAGAGCUCAACACAGCGUGGCAAAGUGGCUGUGGCUAGACUGCCUCUCUGGAUUCCUCGUCUCUCAGCAGGGCAUCUCUGAGAGAGAUGCC as the variant, how does the self-cleavage read?
A: 0.71

Q: Which self-cleavage does the source give for UACGUAGGUGGUUCUCCCCUGAUAGUGCUAAGGGGGCCUGGAAGUUUGGACUGGGCAGGGCUCAACACAGCGUGGCAAAGUGGCUGUGGCUAGACUGCCUCUCUGGAUUCCUCGUCACUCAGCAGGGCAUCCCUGAGAGAAAUGCC here?
A: 0.22

Q: Which self-cleavage does the source give for UACGUAGGUGGUUUUCCCCUGAUAGUGCUAAGGGGGCCUGGAAGUUUGGACUGGGCAGAGCUCAACACAGCGUGGCAAAGUGGCUGUGGCUAGACUGCCUCUCUGGAUUCCUCGCCACUCAUCAGGGCAUCUCUGAGAGAGAUGCC here?
A: 1.55

Q: For UACGUAGGUGGUUUUCCCCUGAUAGUGCUAAGGGGUCCUGGAAGUUUGGACUGGGCAGGGCUCAACACGGCGUGGCAAAGUGGCUGUGGCUAGACUGCCUCUCUGGAUUCCUCGUCACUCAGCAGGGCAUCUCUGAGAGAAAUGCC, which self-cleavage is on record?
A: 0.08

Q: With UACGUAGGUGGUUUUCCCCUGAUAGUGCUAAGGGGGCCUGGAAGUCUGGACUGGGCGGAGCUCAACACAGCGUGGCAUAGUGGCUGUGGCUAGACUGCCUCUCUGGAUUCCUCGUCACUCAGCAGGGCAUCUCUGAGAGAAAUGCC as the variant, how does the self-cleavage read?
A: 1.84

Q: Which self-cleavage does the source give for UACGUAGGUGGUAUUCCCCUGAUAGUGCUAAGGGGGCCUGGAAGUUUGGACUGGGCAGAGCUCAACACAGCGUGGCAAAGUGGCUGUGGCUAGACUGCCUCUCUGGAUCCCUCGUCACUCGGCGGGGCAUCUCAGAGAGAAAUGCC here?
A: 1.25

Q: With UACGUAGGUGGUCUUCCCCUGAUAGUGCUAAGGGGGCCUGGAAGUUUGGACUGGGCAGAGCUCAGCACAGCGUGGCAAAGUGGCUGUGGCAAGACUGCCUCUCUGGAUUCCUCGUCACUCAGCAGGGCAUCUCUGAGAGAAAUGCC as the variant, how does the self-cleavage read?
A: 0.07

Q: For UACGUAGGUGGUAUUCCCCUGAUAGUGCUAAGGGGGCCUGGAAGUUUGGACUGGGCAGAGCACAACACAGCGUGGCAAAGUGGCUGUGGCUAGACUGCCUCACUGGAUUCCUCGUCACUCAGCAGGGCAUCUCUGACAGAAAUGCC, which self-cleavage is on record?
A: 0

Q: With UACGUAGGUGGUUUUCCCCUGAUAGUGCUAAGGGGACCUGGAAGUUUGGACUGGGCAGGGCUCAACACAGCGAGGCAAAGUGGCUGUGGCUAGACUGCCUCUCUGGAUUCCUCGUCACUCAGCAGGGCACCUCUGAGAGAAAUGCC as the variant, how does the self-cleavage read?
A: 0.16

Q: With UACGUAGGUGGUUUUCCCCUGAUAGUGCUAACGGGGCCUGGAAGUUUGGACUGGGCGGAGCUCAACACAGCGUGGCAAAGUGGCUGUGGCUAGACUGCCUCUCUGGAUUCCUCGUCACUCAGCAGGGCAUCUCUGAGAGUAAUGCC as the variant, how does the self-cleavage read?
A: 0.81

Q: With UACGUAGGUGGUUUUCCCCUGAUAGUGCUAAGGGGGCCUGGAAGUUUGGACUGGGCAGAGCUCAACACAGCGUGGCAUAGUGGCUGUGGCUAGACUGCCUCUCUGGAUUCCUCGUCACUCAGCUGGGCACCUCUGAGAGAAAUGCC as the variant, how does the self-cleavage read?
A: 2.99

Q: Which self-cleavage does the source give for UACGUAGGUGGUUUUCCCCUGAUAGUGCUAAGGGGGCCUGGAAGUUUGGACUGGGCAGAGCUCAACACAGCGGGGCAAAGAGGCUGUGGCUAGACUGCCUCUCUGGAUUCCUCGUCACUCAGCUGGGCAUCUCUGAGAGAAAUGCC here?
A: 1.43

Q: For UACGUAGGUGGUUUUCCCCUGAUAGUGCUAAGGGGGCCUGGAAGCUUAGACUGGGCAGAGCUCAACACAGCGUGGCAAAGUGGCUGUGGCUAGACUGCCUCUCUGGAUUCCACGUCACUCAGCAGGGCAUCCCUGAGAGAAACGCC, which self-cleavage is on record?
A: 1.53

Q: With UACGUAGGUGGUUUUCCCCUGAUAGUGCUAAGGGGGCCAGGAGGUUUGGACUGGGCAGAGCUCAACACAGAGUGGCAAAGUGGCUGUGGCUAGACUGCCUCUCUGGAUUCCUCGUCACUCAGCAGGGCAUCUCUGAGAGAAAUGCC as the variant, how does the self-cleavage read?
A: 0.11

Q: With UACGUAGGUGGUUUUCCCCUGAUAGUGCUAAGGGGGCCUGGAAGUUUGGACUGGGCAGAGCUCAACACAGCGCGGCAAAAUGGCUGUGGCUAGACUGCCUCUCUGGAUUCCUCGUCACUCUGCAGGGCAUCUCUGAGAGAAAUGCC as the variant, how does the self-cleavage read?
A: 2.15

Q: With CACGUAGGUGGUUUUCCCCUGAUAGUGCUAAGGGGGCCUGGAAGUCUGGACUGGGCAGAGCUCAACACAGCGCGGCAAAGUGGCUGUGGCUAGACUGCCUCUCUGGAUUCCUCGUCACUCAGCAGGGCACCUCUGAGAGAAAUGCC as the variant, how does the self-cleavage read?
A: 0

Q: Which self-cleavage does the source give for UACGUAGGUGGUUUUCCCCUGAUAGUGCUAAGGGGGCCUGGAAUUUUGGACUGGGCUGAGCUCAACACAGCGUGGCAAAGUGGCUGUGGCUAGACUGCCUCUCUGGAUUCCCCGUCACUCAGCAGGGCAUCUCUGAGAGAAAUGCC here?
A: 0

Q: Which self-cleavage does the source give for UACGUAGCUGGUUUUCCCCUGACAGUGCUAAGGGGGCCUGGAAGAUUGGACUGGGCAGAGCUCAACACAGCGUGGCAAAGUGGCUGUGGCUAGACUGCCUCUCUGGAUUCCUCGUCACUCAGCAGGGCAUCCCUGAGAGAAAUGCC here?
A: 1.53

Q: With UACGUAGCUGGUUUUCCCCUGAUAGUGCUAAGGGGGCCUGGAAGUUUGGACUGGGCAGAGCUCAACACAGCGUGGCAAAGUGGCUGUGGCUAGACUGCCUCUCUGGAUUCCUCGACACUCAGCAGGGCAUCUCUGAGAGAAGUGCC as the variant, how does the self-cleavage read?
A: 2.83

Q: For UACGUAGGUGGUUUCCCCCUGAUAGUGCUAAGGGGGCCUGGGAGUUUGGACUGGGCAGAGCUCAACACAGCGUGGCAAAGUGGCUGUGGCUAGACUGCCUCUCUGGAUUCCUCGUCACUCAGCAGGGCAUCCCUGAGAGAAAUGCC, which self-cleavage is on record?
A: 2.63

Q: With UACGUAGGUGGUUUUCCCCUGAUAGUGCUAAGGGGGCCUGGAAGUUUGGACUGGGCAGAGCCCAACACAGCGUGGCAAAGUGGCUGUGGCUAGACUGCCUCUCUGGAUUCCUCGUCACUCCGCAGGGCAUCUCUGAGAUAAAUGCC as the variant, how does the self-cleavage read?
A: 0.07

Q: With UACGUAGGUGGUUUUCCCCUGACAGUGCUAAGGGGGCCUGGAAGUUUGGACUGGGCAGAGCUCAACACAGCGUGGCAAAGCGGCUGUGGCUAGACUGCCUCUCUGGAUUCCUCGUCCCUCAGCAGGGCAUCUCUGAGAGGAAUGCC as the variant, how does the self-cleavage read?
A: 1.02

Q: For UACGUAGGUGGUUUUCCCCUGAUAGUGCUAAGGGGGCCUGGAGGUUUGGACUGGGCAGAGCUCAACACAGCGUGGCAAAGUGGCUGUGGCUAGACCGCCUCUCUGGAUUCCUCGUCACUCAGCAGGGCAUCUCUGAGUGAAACGCC, which self-cleavage is on record?
A: 0

Q: With UACGUAGGUGGUUUUCCCCUGAUAGUGCUAAGGGGGCCUGGAAGUUUGGACUGGGCAGAGCUCAACACAGCGUGGCAAAGUGGCUGUGGCUAGACUGCCUCUCUGGUCUCCUCGUCACUCAGCAGGGCAUCUCUGAGAGAGAUGCC as the variant, how does the self-cleavage read?
A: 1.38

Q: For UACGUAGGUGGCUCUCCCCUGAUAGUGCUAAGGGGGCCUGGAAGUUUGGACUGGGCAGAGCUCAACACAGCGUGGCAAAGUGGCUGUGGCUAGACUGCCUCUCUGGAUUCCUCGUCACUCAGCAGGGCAUCUCUGAGAGACAUGUC, which self-cleavage is on record?
A: 1.4

Q: For UACGUAGGUGGUUUUCCCCUGAUAGUGCUAAGGGGGCCUGGAAGUUUGGACUGGGCGGAGCUCAACACAGCGUGGCAAAGUGGCUGAGGCUAGUCUGCCUCUCUGGAUUCCUCGUCACUCAGCAGGGCAUCUCUGUGAGAAAUGCC, which self-cleavage is on record?
A: 0.07

Q: Which self-cleavage does the source give for UACGUAGGUGGUUUUCCCCUGAUAGUGCUAAGGGGGCCUGGAAGUUUGGACUGGGCAGAGCUCAACACAGCGUGGCAAAGUGGCUGUGGCUAGACUGCCUCUCUGGAUUCCUCGUCACUCUGCAGGGCAUCCCUGAGAGAAGUGCC here?
A: 1.85

Q: Which self-cleavage does the source give for UGCGUAGGCGGUUUUCCCCAGAUAGUGCUAAGGGGGCCUGGAAGUUUGGACUGGGCAGAGCUCAACACAGCGUGGCAAAGUGGCUGUGGCUAGACUGCCUCUCUGGAUUCCUCGUCACUCUGCAGGGCAUCCCUGAGAGAAAUGCC here?
A: 0.95

Q: For UACGUAGGUGGUUUUCCCCUGAUAGUGCUAAGGGGGCCUGGAAGUUUAGACUGGGCAGAGCUCGACGCAGCGUGGCAAAGUGGCUGUGGCUAGACUGCCUCUCUGGAUUCCCCGUCACUCAGCAGGGCAUCUCUGAGAGAAAUGCC, which self-cleavage is on record?
A: 0.28
